Measured values reported in PubChem BioAssay AID493208 (National Center for Advancing Translational Sciences (NCATS), 2011).
Among all 44,000 compounds or so, about 340 (0.77%) were called active. Roughly 5% stayed inconclusive and do not appear here. Calls follow the shape of the dose curve; as a rule, active = well fitted inhibition curve with a large enough effect; inconclusive = small, poorly fitted or top-dose-only effect; inactive = flat fitted curve, though single readings scatter. The list shows a part of the results.

experiment: Acumen qHTS Assay for Inhibitors of the mTORC1 Signaling Pathway in MEF (Tsc2-/-, p53-/-) Cells: Sytravon; details: phospho-rpS6 immunofluorescence/PI, 24 h; series mostly up to 38.3 µM; activity change, negative = inhibition: at the top concentration;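 also: plate controls were DMSO for no effect and rapamycin for full effect; nearly all actives have a fitted effect of over 50% in size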
Outline: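 Immunofluorescence of rpS6 phosphorylation in Tsc2-/-, p53-/- MEFs after 24 h compound exposure, normalized to propidium iodide signal. Activity is expressed as % positive cells, thresholded with 7.5 nM rapamycin.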

Activity change, negative = inhibition, inactive:
Cc1ccc(C(=O)c2cn(Cc3c(F)cccc3Cl)c3nc(C)ccc3c2=O)cc1 -15.3%
Cc1noc(-c2ccc(-c3noc(-c4ccccc4)n3)cc2)n1 -0.455%
CCc1ccc(C2CC(=O)c3c([nH]c(C(=O)OCc4ccc(C)cc4)c3C)C2)cc1 (stereo not drawn) -16.6%
CCC(C(=O)NCc1ccc2c(c1)CCN2C(=O)c1ccc(F)cc1)c1ccccc1 (stereo not drawn) 0.548%
CCc1nc2ccc(C(=O)NCCc3ccc(OC)cc3OC)cc2nc1CC 5.67%
O=C(NCCc1ccc(Cl)cc1)c1ccc(CS(=O)(=O)Cc2ccc(Cl)cc2)o1 1.2%
CCOC(=O)c1cc(-c2ccc(C)cc2)n(CCC(=O)Nc2cc(Cl)ccc2C)c1C -3.73%
CCOc1ccc(CCNC(=O)c2cc(Nc3ccc(C)cc3C)nc3ccccc23)cc1OCC 1.9%
CC(=O)c1cc(-c2ccccc2)n(CCC(=O)Nc2nc3c(C)cccc3s2)c1C 0.57%
CC1CCN(S(=O)(=O)c2ccc3[nH]cc(C(=O)NCc4ccc(F)cc4)c(=O)c3c2)CC1 -0.324%
O=C1Cc2cc(S(=O)(=O)N3CCCCC3)cc3c2N1CCC3 -6.25%
Cc1ccc(N2CC(NC(=O)Cc3ccc(F)cc3)CC2=O)cc1 (stereo not drawn) -0.212%
Cc1ccc2c(c1)sc1nc(-c3cc4cc(Cl)ccc4oc3=O)cn12 -4.83%
Cc1cccc(CSc2nc(=O)c3c(n2C)NC(=O)CC3c2cccc(O)c2)c1 (stereo not drawn) -6.82%
COc1cc2[nH]c(=O)n(Cc3ccc(C(=O)NCc4ccc(C)cc4)cc3)c(=O)c2cc1OC 1.07%
COc1ccccc1NC(=O)Cn1c(=O)n(-c2cccc(Cl)c2)c(=O)c2sc3ccccc3c21 1.18%
O=C(Cn1c(=O)n(Cc2ccc(C(=O)NCc3ccc4c(c3)OCO4)cc2)c(=O)c2ccccc21)Nc1cccc(Cl)c1 -0.0529%
CC1=C(C(=O)Nc2cccc(C(F)(F)F)c2)C2(CCCCCC2)OC1=O -15.7%
CC(C)CCn1c(=O)c2sccc2n2c(CCCC(=O)Nc3ccc(C(C)C)cc3)nnc12 4.75%
CCOC(=O)CC(NS(=O)(=O)c1cc(-c2cc(C)no2)ccc1C)c1ccc(C)cc1 (stereo not drawn) -27.7%
COc1ccc(N2CCN(c3nc4ccccc4n4c(C)nnc34)CC2)cc1 2.45%
CCOc1ccc2nc(NC(=O)c3nc(SCc4ccc(C)cc4)ncc3Cl)sc2c1 4.46%
O=C(CC1N=C2c3ccccc3N=C(SCC(=O)Nc3ccccc3F)N2C1=O)NCc1ccc2c(c1)OCO2 (stereo not drawn) 4.06%
Cc1ccc2occ(CC(=O)Nc3c(C(=O)Nc4ccc(Cl)cc4)oc4ccccc34)c2c1 -2.85%
CC(C)COc1ccc(C(=O)N2CCC(c3nc4ccccc4s3)CC2)cc1 -22.6%
Cc1cccc(C)c1NC(=O)CN(C)S(=O)(=O)c1ccc2[nH]c3c(c2c1)CCCC3 -1.03%
CN(C(=O)CSc1nc2ccccc2[nH]1)c1ccc(F)cc1 -0.332%
Cc1ccc(CSc2nncn3c2cc2sccc23)cc1 -2.59%
COc1ccc(OC)c(S(=O)(=O)NCc2ccc3c(c2)CCN3C(=O)c2cccc(C)c2)c1 -15.5%
Cc1cccc(N2C(=O)N(Cc3ccc(C(C)(C)C)cc3)c3ccccc3S2(=O)=O)c1 -2.53%
Cc1ccc(CSCCNC(=O)CN(c2cccc(C)c2C)S(=O)(=O)c2ccccc2)cc1 -5.73%
O=C(NCc1ccc(Cl)cc1)c1cnc(N2CCOCC2)c2ccccc12 -1.2%
COc1ccccc1NC(=O)C1=C(C)Nc2nc(SCC(=O)c3ccc(C)cc3)nn2C1c1ccc(F)cc1 (stereo not drawn) -1.21%
CCOC(=O)c1c(NC(=O)C(C)Sc2cn(CCNC(=O)c3ccc(OC)cc3)c3ccccc23)sc2c1CCC2 (stereo not drawn) -1.17%
COc1ccc(CNC(=O)c2ccc3c(c2)CCN3S(=O)(=O)c2ccccc2)cc1 -7.43%
CC1CCCN(S(=O)(=O)c2cc(C(=O)NCCc3ccccc3)n(C)c2)C1 (stereo not drawn) -6.09%
Cc1ccccc1CNC(=O)c1ccc(Cn2c(SCc3ccccc3)nc3cccnc32)cc1 -8.86%
Cc1ccc(-c2nc(CNC(=O)NC3CCCCC3)c(C)o2)cc1 0%
COc1ccc(CNc2nc(-c3ccco3)nn2C(=O)c2ccccc2C)cc1 1.37%
Cc1ccc(Cl)cc1NC(=O)c1ccc2nc(CCc3ccccc3)oc2c1 -5.93%
CC(=O)c1cccc(NC(=O)Nc2cc3c(cc2N2CCCC2)n(C)c(=O)n3C)c1 -0.644%
CCc1ccc(C(=O)Nc2cccc(-c3nc4cc(C(C)C)ccc4o3)c2)cc1 -28.3%
CCn1cc(C(=O)NCc2ccccc2Cl)c(=O)c2cc(S(=O)(=O)N3CCCCCC3)ccc21 -0.612%
CCN(C(=O)c1cc(S(=O)(=O)N2CCCC2)cn1C)c1ccc(OC)cc1 4.13%
COc1ccc(NC(=O)c2nnn(CC(=O)Nc3cc(C)cc(C)c3)c2N)c(OC)c1 -2.2%
CCCCC(=O)Nc1ccc(C(=O)OCc2cc(=O)n3ccsc3n2)cc1 3.97%
O=S(=O)(c1ccccc1)c1nc(-c2ccco2)oc1SCc1ccc(F)cc1 0.552%
Cc1ccc(NC(=O)Cn2c(=O)cc(-c3ccccc3)c3c(C)nn(C)c32)c(Cl)c1 -5.92%
O=C(CSc1nnc(-c2ccc(Cl)cc2)c(-c2ccc(Cl)cc2)n1)NC1CCCC1 -7.11%
CCOC(=O)c1sc2cccc(F)c2c1S(=O)(=O)Nc1ccccc1F -21.8%
Cc1ccc(C)c(NC(=O)Cn2c(=O)n(CC(=O)NCCc3ccccc3)c(=O)c3ccccc32)c1 2.29%
N#Cc1ccccc1NC(=O)C(=O)NCC(c1cccnc1)N1CCc2ccccc21 (stereo not drawn) 3.28%
O=C(Nc1cc(F)ccc1F)c1cnn2c(C(F)F)cc(-c3ccccc3)nc12 -1.93%
COc1cc(OC)c(NC(=O)C(C)n2nc(-c3ccc(C)cc3)c3c(c2=O)CCCC3)cc1Cl (stereo not drawn) -17.1%
CCOCCCNC(=O)Cn1nc(CC)n2c(cc3c(OC)cccc32)c1=O 0.473%
COC(=O)c1ccc(NC(=O)CSc2nc3cc4ccccc4cc3[nH]2)cc1 -13.5%
CCOC(=O)CC(NC(=O)CCc1c(C)nc2cc(-c3ccccc3)nn2c1C)c1ccc(C)cc1 (stereo not drawn) -6.75%
Cc1ccc(NC(=O)C2CCCN(c3ncnc4onc(C)c34)C2)cc1Cl (stereo not drawn) -9.07%
Cc1ccc(S(=O)(=O)c2nnn3c2nc(N2CCN(c4cccc(C)c4C)CC2)c2ccccc23)cc1C 2.79%
COc1ccccc1-c1cc2nc(C)c(CCC(=O)NC3CCCCC3)c(C)n2n1 0.968%
COc1ccc(CCNC(=O)CSc2nnc(-c3ccc(C)cc3)c(-c3ccc(C)cc3)n2)cc1OC 10.8%
CCCCOc1cccc(C(=O)N(Cc2ccc(Cl)cc2)C2CCS(=O)(=O)C2)c1 (stereo not drawn) -5.94%
Cc1ccc(-c2noc(-c3ccc(NCC4CCCO4)c([N+](=O)[O-])c3)n2)cc1 (stereo not drawn) -9.43%
COc1cccc(C2=NN(S(C)(=O)=O)C(c3cn(-c4ccccc4)nc3-c3cccs3)C2)c1 (stereo not drawn) 2.1%
COc1ccc(CNC(=O)CN(C)c2nn3c(=O)cc(C)nc3s2)cc1 1.92%
CC(=O)c1ccc(N2CCN(C(=O)CS(=O)(=O)c3cccc4nsnc34)CC2)cc1 -16%
CCOc1ccc(C(=O)NCCS(=O)(=O)N2CCN(c3cccc(Cl)c3)CC2)cc1 -11.5%
COc1ccccc1NC(=O)N1CC=C(c2c[nH]c3ccccc23)CC1 -5.14%
Cc1cc(=O)[nH]c2nnc(SCCC(C)C)n12 0.224%
COc1cc(C(=O)Nc2ccccc2OCc2cc(=O)n3cc(C)sc3n2)cc(OC)c1OC -7.33%
Cc1ccc(-c2nnc(Nc3ccc(Cl)cc3)c3ccccc23)cc1S(=O)(=O)NCC1CCCO1 (stereo not drawn) 4.83%
O=C(c1cccc(Cl)c1)N1CCC(c2nc3c(nnn3Cc3ccc(F)cc3F)c(=O)[nH]2)CC1 -0.436%
COc1ccc(C(=O)c2cn(Cc3ccccc3F)c3ccc(F)cc3c2=O)cc1 -6.64%
Cc1cccc(NC(=O)c2oc3ccc(S(=O)(=O)N4CCCCC4)cc3c2C)c1C 5.26%
COc1ccc(-c2[nH]c(-c3ccc(OC)c(OC)c3)nc2SCC(=O)Nc2ccccc2)cc1 -28.8%
Cn1ccc2cc(S(=O)(=O)N3CCCN(C(=O)Nc4ccc(Br)cc4)CC3)ccc21 1.21%
Cc1ccc(Nc2c(-c3ccc(N(C)C)cc3)nc3ccccn23)cc1 -6.62%
CCOc1ccccc1C(=O)N(Cc1ccc(N(C)C)cc1)Cc1ccco1 -3.71%
CCOC(=O)c1ccc2c(c1)N(CC(=O)Nc1cc(F)ccc1F)C(=O)c1ccccc1S2 -0.152%
CCOc1ccc(-c2nc3c(c(CC)nn3-c3ccccc3)c3cc(OC)c(OC)cc23)cc1 5.42%
CC1=C(C(N)=O)C(c2cccc(C)c2)n2nc(-c3ccc(Cl)cc3)nc2N1 (stereo not drawn) -12.5%
CSc1ccccc1NC(=O)C1=CC(c2ccc3c(c2)OCO3)=NS(=O)(=O)N1C -0.821%
COc1ccc(NC(=O)c2c(NC(=O)COc3ccc(Cl)cc3)sc3c2CCCCC3)cc1 13.1%
CCN(C(=O)Cn1nc2c3cc(F)ccc3n(Cc3cccc(C)c3)cc-2c1=O)c1cccc(C)c1 -7.8%
CCOC(=O)CCN(Cc1ccccc1)S(=O)(=O)c1csc(C(N)=O)c1 10.8%
COc1cc(OC)c(NC(=O)N2CCOc3ccc(C)cc32)cc1Cl 9.16%
N#Cc1cc2c(=O)n3ccccc3nc2n(-c2nnc(SCc3ccc(F)cc3)s2)c1=O -3.1%
Cc1ccc(C)c(NC(=O)C(=O)NCC(c2cccnc2)N2CCN(c3ccc(F)cc3)CC2)c1 (stereo not drawn) -8.51%
CC1CN(C(=O)CCC(=O)NCc2cccs2)c2ccccc2O1 (stereo not drawn) 2.34%
COc1cc(NC(=O)C2=C(C)Nc3nnnn3C2c2ccc(SC)cc2)c(OC)cc1Cl (stereo not drawn) -4.69%
Cc1ccc(S(=O)(=O)c2cn(C)c3cc(N4CCN(c5ccccc5)CC4)c(F)cc3c2=O)cc1 -1.08%
CCOC(=O)N1CCc2c(sc3c2c(=O)n(Cc2ccccc2)c(=O)n3Cc2cccc(Cl)c2)C1 -15.5%
Cc1ccc(-n2nc(C(=O)N3CCCCC3C)c(=O)n(C)c2=O)cc1 (stereo not drawn) -4.39%
